In all, about 310,000 compounds went through this assay and about 2,200 (0.71%) showed an effect of 50% or more. The effect is printed as a negative number. The list shows a part of the results.
target: human ether-à-go-go-related gene (hERG) potassium channel (human, UniProt Q12809); assay: primary screen, population patch clamp on CHO cells stably expressing hERG
Sequence (Q12809 whole entry, looked up): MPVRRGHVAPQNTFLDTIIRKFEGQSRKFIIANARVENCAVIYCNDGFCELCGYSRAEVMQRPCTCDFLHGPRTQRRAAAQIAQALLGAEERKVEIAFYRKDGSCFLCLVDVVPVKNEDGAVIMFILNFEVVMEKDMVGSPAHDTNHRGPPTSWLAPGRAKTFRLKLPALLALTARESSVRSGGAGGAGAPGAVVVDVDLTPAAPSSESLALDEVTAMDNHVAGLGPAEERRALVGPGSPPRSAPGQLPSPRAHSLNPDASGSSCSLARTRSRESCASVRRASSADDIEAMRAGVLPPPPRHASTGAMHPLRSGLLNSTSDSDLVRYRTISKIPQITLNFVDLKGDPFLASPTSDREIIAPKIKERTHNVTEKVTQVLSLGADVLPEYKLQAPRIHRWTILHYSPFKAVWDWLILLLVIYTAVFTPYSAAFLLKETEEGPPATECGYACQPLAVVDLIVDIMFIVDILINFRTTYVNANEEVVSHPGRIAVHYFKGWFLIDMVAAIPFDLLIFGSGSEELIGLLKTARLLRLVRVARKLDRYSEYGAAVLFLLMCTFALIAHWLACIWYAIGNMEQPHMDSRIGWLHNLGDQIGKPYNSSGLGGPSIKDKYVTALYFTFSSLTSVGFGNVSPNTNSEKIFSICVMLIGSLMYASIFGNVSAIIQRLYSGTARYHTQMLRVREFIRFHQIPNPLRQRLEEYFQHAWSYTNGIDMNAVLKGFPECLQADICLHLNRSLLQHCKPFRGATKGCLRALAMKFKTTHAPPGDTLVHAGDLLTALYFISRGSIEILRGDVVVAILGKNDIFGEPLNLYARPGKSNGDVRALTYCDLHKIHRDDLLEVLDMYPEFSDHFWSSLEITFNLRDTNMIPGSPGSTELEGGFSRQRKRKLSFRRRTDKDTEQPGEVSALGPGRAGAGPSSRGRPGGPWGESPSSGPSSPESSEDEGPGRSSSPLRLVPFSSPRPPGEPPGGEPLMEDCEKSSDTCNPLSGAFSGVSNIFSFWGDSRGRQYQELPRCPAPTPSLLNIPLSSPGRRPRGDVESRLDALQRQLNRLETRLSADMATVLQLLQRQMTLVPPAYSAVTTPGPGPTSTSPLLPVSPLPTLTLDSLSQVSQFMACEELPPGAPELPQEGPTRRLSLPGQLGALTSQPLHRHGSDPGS

Row | SMILES | hERG current change (%, negative = inhibition) at 1uM [%]
1 | COc1cccc(N(CC(=O)NC2CCCC2)C(=O)CCCC(=O)Nc2ccccn2)c1 | 11.6
2 | Cc1cccc(N2C(=S)NC3c4ccccc4OC2(C)C3C(=O)N(C)C)c1 (centres unmarked) | 4.98
3 | CCOC(=O)N1CCN(C(=O)c2ccc3nc(C)sc3c2)CC1 | 9.35
4 | CSc1ccc(C2NC(=O)c3c(sc4c3CCN(C)C4)N2)cc1 (centres unmarked) | -23.7
5 | Clc1ccc(-c2nc3ccccc3[nH]2)cn1 | 12.8
6 | CCO.Cn1c2c(c(=O)n(C)c1=O)C1(C(=O)Nc3ccccc31)C(C#N)=C(N)O2 (centres unmarked) | 11.8
7 | Cn1c(=O)n(C)c2cc(S(=O)(=O)N3CCCc4ccccc43)ccc21 | -9.22
8 | CCOC(=O)CC(=O)CSc1nc2c(cc1C#N)CCCCC2 | 13.3
9 | CC1CCc2c(sc(/N=C/c3cccnc3)c2C(N)=O)C1 (centres unmarked) | 12.2
10 | CC(C)CN(C(=O)COC(=O)c1ccc2c(c1)NC(=O)CS2)C1CCS(=O)(=O)C1 (centres unmarked) | 9.17
11 | CC(C)c1ccc(NC(=O)CNS(=O)(=O)c2ccc(F)cc2)cc1 | 7.51
12 | C=C1CCN([C@@H](CC(C)C)C(=O)O)S(=O)(=O)c2ccccc21 | 15.5
13 | COc1ccc(C2N(c3ccc4c(c3)OCCO4)C(=O)C2(F)F)cc1OC (centres unmarked) | 13.5
14 | CNC(=O)c1[nH]cnc1C(=O)N[C@@H](Cc1ccccc1)C(=O)OCc1ccccc1 | 10.6
15 | COc1ccc(CNC(=O)CNC(=O)[C@@H]2Cc3ccccc3CN2)cc1 | 28.5
16 | CC(C)Cn1c(N)c(C(=O)NCCN2CCOCC2)c2nc3ccccc3nc21 | -71.5
17 | COc1ccccc1-n1c(-c2cn(C)nc2C)n[nH]c1=S | 15.1
18 | Cc1ccc(C(=O)N/C(=C/c2cccc([N+](=O)[O-])c2)C(=O)NCC2CCCO2)cc1 (centres unmarked) | -44.3
19 | COc1ccc(-c2nc(-c3ccccn3)ncc2S(C)(=O)=O)cc1 | 10.1
20 | Cc1ccc(-c2[nH]nc(N)c2N=Nc2ccccc2C)cc1 | 4.85
21 | CCN1C(=O)[C@H]2[C@@H](c3ccc(-c4cccc(Cl)c4)cc3)N[C@@](Cc3ccccc3)(C(=O)OC)[C@H]2C1=O.O=C(O)C(F)(F)F | 0.443
22 | COc1cccc(CNC(=O)CCNS(=O)(=O)c2ccc(Br)s2)c1 | 7.67
23 | O=C(/C=C/c1ccc(N2CCOCC2)cc1)c1ccccc1 | 9.84

Row | SMILES | hERG current change (%, negative = inhibition) at 1uM [%]
24 | CCCCC/C=C/C1=CC(=O)C[C@H](c2ccc3c(c2)OCO3)C1 | 6.83
25 | COP(=O)(OC)C(O)C(Cl)(Cl)Cl (centres unmarked) | 17.5
26 | CCN(C(=O)C(C)N1C(=O)/C(=C/c2cccs2)SC1=S)C1CCS(=O)(=O)C1 (centres unmarked) | -0.641
27 | CCN(CC)C(=O)CSc1nnc(-c2ccccn2)n1-c1ccc(C)c(C)c1 | -4.22
28 | CC(=O)O[C@H]1CC[C@@]2(C)C(=CC[C@@H]3[C@@H]2CC[C@]2(C)C(=O)CC[C@@H]32)C1 | 13.1
29 | O=C(OCc1cccc([N+](=O)[O-])c1)c1ccncc1 | 10.6
30 | COCCNC(=O)CCn1nc(-c2ccc(C)cc2)ccc1=O | 8.85
31 | COc1ccc(NC2CCCN(C(=O)C3(C)CCCCC3)C2)cc1OC (centres unmarked) | 8.79
32 | CC(C)C(C(=O)NCC1CCCO1)N(C(=O)CNS(=O)(=O)c1ccc(F)cc1)c1ccccc1 (centres unmarked) | 4.58
33 | O=C(Cn1c(=O)n(Cc2ccccc2)c(=O)c2cc(Cl)ccc21)NCC1CCCO1 (centres unmarked) | 11
34 | COc1cc(OC)c(OC)cc1CN1CCCC(C(=O)N2CCCCC2)C1.O=C(O)C(=O)O (centres unmarked) | 6.47
35 | O=S1(=O)N=C(N/N=C/c2ccco2)c2ccccc21 | 13.8
36 | CSc1ncc(S(=O)(=O)c2ccccc2)c(=O)[nH]1 | 2.16
37 | COc1cc(OC)c(Nc2cc(C)nc3nc(C)nn23)cc1Cl | 12.9
38 | Cc1[nH]nc(-c2ccc(OCc3cnn(-c4ccccc4)c3)cc2O)c1Oc1ccc(Cl)cc1 | 10.2
39 | Cc1ccc(Nc2nnc(SCC(=O)c3c(N)n(C4CC4)c(=O)[nH]c3=O)s2)cc1C | 13.3
40 | CC1(C)OC(=O)C(=NNc2ccccc2)C(=O)O1 | 5.61
41 | CN1C2=CC=CC=CC2=[N+](C)C12C([N+](=O)[O-])=CC(=[N+]([O-])[O-])C=C2[N+](=O)[O-] (centres unmarked) | 9.17
42 | CCN(CC)C(=O)CN(C)S(=O)(=O)c1cccc2nsnc12 | 10.6
43 | CN1CCN(c2ccccc2NC(=O)c2cc3ccccc3o2)CC1 | -19.3
44 | CCOc1ccc(NC(=S)NC(C)c2cccs2)cc1 (centres unmarked) | 8.67
45 | O=C(NCc1ccco1)C1CCCN1C(=O)Nc1cccc(Cl)c1 (centres unmarked) | 8.37
46 | COc1ccc(-c2nc3ccccc3c(=O)n2-c2cccnc2)cc1 | 5.93

Row | SMILES | hERG current change (%, negative = inhibition) at 1uM [%]
47 | Cc1sc2ncn(-c3ccccc3)c(=O)c2c1C | 15.1
48 | O=C(Nc1ccccc1C(F)(F)F)c1ccc(F)c(S(=O)(=O)N2CCOCC2)c1 | 7.47
49 | COc1ccc(Br)c(C(=O)Nc2nc3ccccc3[nH]2)c1 | 13.8
50 | CCOC(=O)C(=O)Nc1ccc(S(=O)(=O)Nc2ncccn2)cc1 | 3.04
51 | O=C(CN1CCOCC1)N/N=C/c1cccc2ccccc12 | 16.2
52 | Cc1ccc(NC(=O)c2ccccc2)cc1-n1cnnn1 | 15.5
53 | O=C(CCl)NC(Cc1c[nH]c2ccc(OCc3ccccc3)cc12)C(=O)O (centres unmarked) | 14.3
54 | COc1ccccc1N1CCN(C(=S)Nc2ccccc2)CC1 | 13.5
55 | CC(C)n1nc(C(=O)N2CCN(S(=O)(=O)c3cccs3)CC2)c2ccccc2c1=O | 3.74
56 | Cc1ccc(C2C(C#N)=C(N)Oc3n[nH]c(-c4cccs4)c32)cc1 (centres unmarked) | 16.7
57 | COc1ccc(-c2nc(SCc3ccccc3)n(S(C)(=O)=O)n2)cc1 | -6.53
58 | COc1cccc(/C=C/C(=O)c2ccc3c(c2)OCCO3)c1OC | 9.53
59 | COCCN(C(=O)c1ccc(C)o1)c1c(N)n(CC(C)C)c(=O)[nH]c1=O | -18.4
60 | CCCc1cc(Nc2ccccc2)n2ncnc2n1 | 11.2
61 | Cc1cc(C)c(C2C3=C(Nc4c2c(C)nn4-c2ccccn2)c2ccccc2C3=O)c(C)c1 (centres unmarked) | -2.03
62 | N#C/C(=C\c1cccnc1)C(=O)Nc1ccc(C(=O)O)cc1 | 12.2
63 | Cn1c(SCCN2CCCCC2)nnc1-c1ccccc1Br.O=C(O)C(=O)O | 12.2
64 | Cc1ccc(C)c(NP(=O)(Oc2ccccc2)Oc2ccccc2)c1 | 12.2
65 | Nc1cc(C(=O)OCC(=O)N2CCOCC2)ccc1Cl | 17.7
66 | Cc1cc(C)c2cc(C(=O)N3CCc4ccccc4C3)[nH]c2c1 | 1.19
67 | CN1CCN(C(=O)C2CCCN(S(=O)(=O)c3ccc(F)cc3)C2)CC1 (centres unmarked) | 17.8
68 | CO/N=C/C(NC(=O)c1ccc(C(F)(F)F)cc1)C(=O)OC (centres unmarked) | 19.5
69 | O=C1Nc2ccccc2/C1=N\N=C\c1ccc(O)c(O)c1 | 9.87

Row | SMILES | hERG current change (%, negative = inhibition) at 1uM [%]
70 | O=C(CNS(=O)(=O)c1ccc(Br)s1)N1CCN(c2ccc(F)cc2)CC1 | -1.3
71 | COC(=O)C1CCN(c2ccc(Cl)nn2)CC1 | 16.3
72 | CC(C)(C)NC(=S)NNC(=O)c1ccncc1 | 4.78
73 | COCCNC(=O)CSc1nnc2c(Cl)cc(Cl)cn12 | -3.91
74 | S=C(NNc1ccnc2cc(Cl)ccc12)Nc1ccc(Cl)cc1Cl | 19.7
75 | Cc1ccc(CNC(=O)C2CC(=O)N(C3CCCCCC3)C2)cc1 (centres unmarked) | 9.48
76 | CC(C)(C)Sc1nc(O)cc(=O)[nH]1 | -6.96
77 | NS(=O)(=O)c1ccc(NC(=S)NC2CCCCC2)cc1 | 12.9
78 | Cc1cs/c(=N/C(=S)Nc2ccccc2)n1C | 36.5
79 | Cc1ccc(CSc2nnc(-c3cccc(S(=O)(=O)N4CCOCC4)c3)n2CC(C)C)cc1 | -5.39
80 | CN(C)CCNC(=O)CN1C(=O)COc2ccc(C(C)(C)C)cc21 | 6.42
81 | Cc1cc(C)cc(N(CCC#N)C(=O)COC(=O)c2ccccc2SCC(=O)N2CCCC2)c1 | -1.61
82 | Cc1ccc2nc(SCC(=O)Nc3c(F)cccc3F)[nH]c2c1 | 0.495
83 | O=C(O)c1ccc(NS(=O)(=O)c2ccc(N3CCCC3)c([N+](=O)[O-])c2)cc1 | 12.9
84 | O=C(NCc1csc(-c2cccs2)n1)C1CCCCC1 | 4.73
85 | O=C(COc1ccc(-c2ccccc2)cc1)NNC(=O)Nc1ccc(F)cc1F | 17.9
86 | COc1ccc(Br)c(OC)c1C(=O)NC(=O)Nc1c(F)cccc1F | 8.43
87 | O=Cc1ccc(C(=O)OCC(=O)NCCC2=CCCCC2)cc1 | -2.71
88 | CN(C)C(N)=NCCC[C@H](N)C(=O)O.Cl | 14.8
89 | CN(C)C=Nc1nc2ccccc2nc1N1CCCC1 | 8.7
